Laboratory results: patent US20090082371A1, “Treatment of Viral Disease and Cancer With Nf-kappaB Inhibitors” (priority 2005, published 2009)

Legend:
[1] = test system: cells listed in Table 1; assay: Cancer cell growth, panel of cells listed in Table 1; format: cell-based, human
Description: The tested cells include LNCAP human prostate cancer cells, MDA-MB-468 human breast cancer cells, H1299 human lung cancer cells, AGS human gastric cancer cells, HepG2 human liver cancer cells, PANC-1 human pancreatic carcinoma cells, Jurkat human acute T-cell leukemia cells, A431 human epidermoid carcinoma cells, U251 human glioma cells, NBT-II human bladder cancer cells, and Hela human cervical cancer cells.

[2] = test system: retrovirus expressing GFP; details: 293T cells, tested dosages, two days after infection
Procedure: FIG. 1. Retroviruses expressing a marker protein, the green fluorescent protein (GFP), were prepared as described previously (Lu M. and Shenk T., J Virol. 1999; 73: 676-683). 293T human embryonic kidney cells were infected with the GFP-retrovirus. Some cells were pretreated with 6-Amino-4-(4-phenoxy)phenethylaminoquinazoline (Column A), 6-Amino-4-(4-n-pentyloxy)phenethylaminoquinazoline (Column B), 6-Amino-4-(4-n-hexyloxy)phenethylaminoquinazoline (Column C), 6-Amino-4-(4-n-butoxy)phenethylaminoquinazoline (Column D), 6-Amino-4-(4-benzyloxy)phenethylaminoquinazoline (Column E), 6-Amino-4-[4-(2-pyridylmethyloxy)phenethylaminoquinazoline (Column F), 4-(4-Allyloxy)phenethylamino-6-aminoquinazoline (Column G), or rocaglamide (Column H) for 30 mins before viral infection. Two days later, the cells were photographed with a digital camera mounted on a microscope. […] Data represent the mean±standard deviation of three independent experiments.
293T cells were pretreated with or without 6-Amino-4-(4-phenoxy)phenethylaminoquinazoline (1.5 μM) 30 mins before infection of retrovirus expressing GFP. Two days later, the number of infected cells from two separate experiments was counted.

[3] = test system: VSV-G-enveloped HIV-Luciferase viruses (HIV-1)

Compound	effects on cancer cell growth [1]	cell deaths observed [2]	cell deaths observed [3]	inhibition of HIV-1 viral infection and replication (HIV-1-induced Luciferase activity) [3]
CCCOc1ccc(CCNc2ncnc3ccc(N)cc23)cc1 [6-Amino-4-(4-propoxy)phenethylaminoquinazoline]	comparable to treatment with 6-Amino-4-(4-phenoxy)phenethylaminoquinazoline	–	–	–
C#CCOc1ccc(CCNc2ncnc3ccc(N)cc23)cc1 [6-Amino-4-(4-propargyloxy)phenethylaminoquinazoline]	comparable to treatment with 6-Amino-4-(4-phenoxy)phenethylaminoquinazoline	–	–	–
CC(C)Oc1ccc(CCNc2ncnc3ccc(N)cc23)cc1 [6-Amino-4-(4-iso-propoxy)phenethylaminoquinazoline]	comparable to treatment with 6-Amino-4-(4-phenoxy)phenethylaminoquinazoline	–	–	–
6-Amino-4-(4-n-hexyloxy)phenethylaminoquinazoline	comparable to treatment with 6-Amino-4-(4-phenoxy)phenethylaminoquinazoline	no obvious cell deaths	no obvious cell deaths	showed inhibition
Nc1ccc2ncnc(NCCc3ccc(OCc4ccccn4)cc3)c2c1	comparable to treatment with 6-Amino-4-(4-phenoxy)phenethylaminoquinazoline	–	–	–
C=CCOc1ccc(CCNc2ncnc3ccc(N)cc23)cc1	comparable to treatment with 6-Amino-4-(4-phenoxy)phenethylaminoquinazoline	–	–	–
6-Amino-4-(4-n-pentyloxy)phenethylaminoquinazoline	comparable to treatment with 6-Amino-4-(4-phenoxy)phenethylaminoquinazoline	no obvious cell deaths	no obvious cell deaths	showed inhibition
6-Amino-4-(4-n-butoxy)phenethylaminoquinazoline	comparable to treatment with 6-Amino-4-(4-phenoxy)phenethylaminoquinazoline	no obvious cell deaths	no obvious cell deaths	showed inhibition
CCOc1ccc(CCNc2ncnc3ccc(N)cc23)cc1 [6-Amino-4-(4-ethoxy)phenethylaminoquinazoline]	comparable to treatment with 6-Amino-4-(4-phenoxy)phenethylaminoquinazoline	–	–	–
Nc1ccc2ncnc(NCCc3ccc(OCc4ccccc4)cc3)c2c1	comparable to treatment with 6-Amino-4-(4-phenoxy)phenethylaminoquinazoline	–	–	–
